According to PubChem BioAssay AID485341 (National Center for Advancing Translational Sciences (NCATS), 2010):
The campaign covered roughly 330,000 compounds. About 1,700 (0.52%) were called active. Inconclusive results, whose numbers are uncertain, are shown with a selection of clear calls. The call rests on the fitted dose curve; in most records, active means well fitted inhibition curve with a large enough effect; inconclusive means small, poorly fitted or top-dose-only effect; inactive means no such curve, though single readings can be large or run the other way. A potency beside an inconclusive call is a rough fit, not a confirmed value.

target: Beta-lactamase (Escherichia coli (strain K12)) (UniProt P00811); experiment: qHTS Inhibitors of AmpC Beta-Lactamase (assay without detergent); conditions: AmpC nitrocefin hydrolysis, absorbance 480 nm, 0.0001% Triton; activity change, negative = inhibition: at 57.1 µM (top of the series) unless noted; further: nearly all actives have a fitted effect of over 20% in size
Method in brief: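 20 mM phosphate pH 7.0 + 0.01% (detergent screen) or 0.0001% Triton X-100; 5.3 nM AmpC reagent; cpd preinc 15 min RT; nitrocefin (800 uM stock) to start; A480 q20 s × 4 min; Activity was normalised to no-enzyme and no-compound control wells.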
Potency means the concentration at half of the fitted maximal effect; tags describe the fitted curve by direction and shape.

Sequence of UniProt P00811 (P00811 whole entry, looked up): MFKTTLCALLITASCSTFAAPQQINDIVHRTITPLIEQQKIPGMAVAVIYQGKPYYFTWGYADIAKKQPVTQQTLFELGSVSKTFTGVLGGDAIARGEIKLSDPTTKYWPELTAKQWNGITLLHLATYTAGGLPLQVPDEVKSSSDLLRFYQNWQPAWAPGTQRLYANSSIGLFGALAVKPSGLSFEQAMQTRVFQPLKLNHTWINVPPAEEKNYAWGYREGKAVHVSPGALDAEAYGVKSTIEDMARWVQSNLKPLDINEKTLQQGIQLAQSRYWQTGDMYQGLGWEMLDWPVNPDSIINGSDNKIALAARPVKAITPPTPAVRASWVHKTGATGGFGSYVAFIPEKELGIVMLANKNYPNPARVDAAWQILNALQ

Row | SMILES | activity change, negative = inhibition | Potency
1 | NC(=O)[C@@H]1CCCNc2c(I)cc([N+](=O)[O-])cc2C(=O)N[C@@H](Cc2ccccc2)C(=O)N[C@@H](Cc2cnc[nH]2)C(=O)N1 | inactive: 35.2% | 
2 | CC(=O)Nc1ccc2c3c(cccc13)C(=O)N(c1ccccc1)C2=O | inactive: -8.03% | 
3 | CCOC(=O)N1CCC(NC(=O)Cn2ncc3ccccc32)CC1 | inactive: -2.39% | 
4 | Cc1cccc(NC(=O)CSc2nnc3ccc(-c4ccccn4)nn23)c1 |  | inconclusive: 39.8 µM [inhibitor, single point]
5 | Cc1ccccc1-n1c(-c2csc(C)c2C)n[nH]c1=S |  | active: 22.4 µM
6 | CCN1CCN(C(=O)c2cc3cc(Cl)ccc3[nH]2)CC1 | inactive: 27.9% | 
7 | CCCOc1ccccc1NC(=O)c1c(-c2ccccc2)noc1C |  | inconclusive: 0.501 µM [inhibitor, full curve, poor fit]
8 | O=C1/C(=C/c2ccccn2)SC(=S)N1c1cccc(O)c1 |  | inconclusive: 10 µM [inhibitor, partial curve]
9 | O=C(N/N=C/c1c[nH]c2ccc(Br)cc12)c1ccc2c(c1)OCO2 |  | inconclusive: 15.8 µM [inhibitor, partial curve]
10 | COc1ccc(CCNC(=O)c2nn(C)cc2Cl)cc1 |  | inconclusive: 7.08 µM [inhibitor, single point]
11 | O=C1c2cccc3c(N4CCOCC4)c([N+](=O)[O-])cc(c23)C(=O)N1c1cccc2ccccc12 |  | inconclusive: 3.16 µM [inhibitor, full curve, poor fit]
12 | CC(C(=O)Nc1nccs1)N1C(=O)c2ccccc2S1(=O)=O (stereo not given) | inactive: -11.3% | 
13 | N#CC1(NC(=O)COc2ccccc2[N+](=O)[O-])CCCCC1 |  | inconclusive: 39.8 µM [inhibitor, single point]
14 | Cc1cccc(Cc2nnc(CCC(=O)NCc3cn4ccccc4n3)o2)c1 | inactive: 19.2% | 
15 | C[C@@H](C(=O)Nc1nc2ccc(F)cc2s1)N1C(=O)C2CC=CCC2C1=O (stereo not given in full) | inactive: -18.7% | 
16 | COc1cc(Cl)c(C)cc1NC(=O)CSc1sc2c(O)cc(=O)[nH]c2c1C#N |  | active: 1.58 µM
17 | COC(=O)c1sccc1NC(=O)CSc1ccccc1NS(=O)(=O)c1ccc(F)cc1 |  | inconclusive: 0.398 µM [inhibitor, full curve, poor fit]
18 | Clc1ccc(SCc2cc(-c3ccc(Cl)cc3)on2)cc1 |  | inconclusive: 3.98 µM [inhibitor, single point]
19 | COc1ccccc1CCNC(=O)C1CCN(c2nnc(C)c3c(C)n(-c4ccc(C)cc4)nc23)CC1 | inactive: 111% | 
20 | Nc1nc(Cl)cc(-c2ccccc2)n1 | inactive: -14.8% | 
21 | CCCC1S/C(=N/N=C/c2ccco2)NC1=O (stereo not given) |  | inconclusive: 22.4 µM [inhibitor, single point]
22 | CCOc1ccc(C2CC(c3ccc(CC)cc3)n3nc(N)nc3N2)cc1 (stereo not given) |  | inconclusive: 2.82 µM [inhibitor, full curve, poor fit]
23 | O=C(CCCOc1ccccc1)Nc1ccc(S(=O)(=O)Nc2ccccn2)cc1 |  | inconclusive: 20 µM [inhibitor, partial curve, poor fit]

Row | SMILES | activity change, negative = inhibition | Potency
24 | Cc1cc(C)n(Cc2ccc(Cl)c(Cl)c2)c(=O)c1S(=O)(=O)c1ccccc1 |  | inconclusive: 0.178 µM [inhibitor, full curve, poor fit]
25 | COc1cccc2c(=O)n(CC(=O)N3CCC(C)CC3)ccc12 |  | inconclusive: 100 µM [inhibitor, partial curve, poor fit]
26 | Cc1ccc(Nc2nc(Nc3ccc(C)cc3)nc(SC3=NCCS3)n2)cc1 |  | inconclusive: 3.16 µM [inhibitor, full curve, poor fit]
27 | COC(=O)c1ccc(NC(=S)Nc2ccc3ccccc3c2)cc1 |  | active: 0.251 µM
28 | COc1cc(C2C3=C(CC(C)(C)CC3=O)Nc3c2c(=O)[nH]c(=O)n3Cc2ccccc2)ccc1O (stereo not given) |  | inconclusive: 35.5 µM [inhibitor, single point]
29 | Cc1cc(N=NC(=O)c2ccccc2)ccc1O | inactive: -31.2% | 
30 | Cn1c(SCC(=O)N2CCN(c3cccc(Cl)c3)CC2)nnc1-c1ccncc1 |  | inconclusive: 0.141 µM [inhibitor, full curve, poor fit]
31 | COc1ccc(OC)c(S(=O)(=O)n2cccn2)c1 | inactive: -16.5% | 
32 | CCOc1ccccc1C1N=C(c2ccc(OC)cc2)CC(c2ccccc2O)N1 (stereo not given) |  | active: 31.6 µM
33 | CCOC(=O)C1=C(C)NC(C)=C(C(=O)OCC)C1c1cn(-c2ccccc2)nc1-c1ccco1 | inactive: -8.93% | 
34 | CCOC(=O)c1ccc(N=c2sc(C(=O)OC)cc(=O)n2-c2ccc(C(=O)OCC)cc2)cc1 |  | inconclusive: 3.55 µM [inhibitor, single point]
35 | NC(=O)c1sc2nccc(Nc3ccccc3)c2c1N |  | inconclusive: 12.6 µM [inhibitor, partial curve]
36 | COc1ccccc1NS(=O)(=O)c1ccc(O)c(C(N)=O)c1 |  | inconclusive: 6.31 µM [inhibitor, single point]
37 | CCOC(=O)N1CCC(c2cc(=O)n3[nH]c(C)c(-c4ccc(F)cc4)c3n2)CC1 |  | active: 25.1 µM
38 | CC1c2[nH]c3ccccc3c2CCN1S(C)(=O)=O (stereo not given) |  | inconclusive: 6.31 µM [inhibitor, single point]
39 | COC(=O)c1sc2nc(SCc3cccc(Cl)c3)n(N)c(=O)c2c1C |  | inconclusive: 39.8 µM [inhibitor, single point]
40 | CCCN(C(=O)CSCC(=O)Nc1ccc(OC)cc1)c1c(N)n(Cc2ccccc2)c(=O)[nH]c1=O |  | inconclusive: 39.8 µM [inhibitor, single point]
41 | C=CCN(c1ccccc1)S(=O)(=O)c1cccc(C(=O)NCc2ccncc2)c1 |  | inconclusive: 35.5 µM [inhibitor, single point]
42 | Cc1ccc(-c2csc(NC(=S)NC(=O)/C=C/c3ccco3)n2)cc1 |  | active: 3.98 µM
43 | Cc1cccc(C)c1NC(=O)C(NC(=O)c1ccccn1)c1ccc([N+](=O)[O-])cc1 (stereo not given) |  | inconclusive: 6.31 µM [inhibitor, single point]
44 | Cc1ncc(N=Nc2ccc(F)cc2)c(-c2ccc(Cl)cc2)n1 |  | active: 0.398 µM
45 | Cc1csc(CNc2ncnc3ccc(-c4ccco4)cc23)c1 | inactive: -0.81% | 
